# In the BET-seq Pho4 binding data (Le et al. 2018):
# Some of the results follow. The energies were worked out here from pooled read counts, against the library average; single values are noisy.
# Molecular target: T1, Pho4 (S. cerevisiae) (UniProt P07270)
# T1 sequence: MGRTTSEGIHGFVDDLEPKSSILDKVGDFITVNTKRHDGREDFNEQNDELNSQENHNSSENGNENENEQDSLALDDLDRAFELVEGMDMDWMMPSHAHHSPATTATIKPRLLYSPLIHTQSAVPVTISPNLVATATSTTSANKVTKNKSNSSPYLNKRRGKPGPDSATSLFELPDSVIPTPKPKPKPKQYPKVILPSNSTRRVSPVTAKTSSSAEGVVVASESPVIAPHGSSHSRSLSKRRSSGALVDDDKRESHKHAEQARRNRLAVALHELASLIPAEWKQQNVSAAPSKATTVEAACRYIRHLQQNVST
# Assay: relative binding free energy (BET-seq); higher = weaker binding
# Conditions: reference: library average
row,Sequence,relative binding free energy [kcal/mol]
1,CATTTCACGTGAGGTT,0.47
2,TGGGGCACGTGAACAG,0.08
3,AGGGACACGTGGATGA,0.06
4,AGGTTCACGTGAATCT,0.35
5,GGGCTCACGTGTAAGG,0.41
6,GGGTGCACGTGATTGC,0.12
7,ATAGACACGTGAGGAG,0.39
8,GGCTTCACGTGTATTA,0.3
9,GCATTCACGTGGTGGT,0.14
10,TAAGGCACGTGATGGC,0
11,AGAGTCACGTGATTGA,0.21
12,GTGTTCACGTGGTTGC,0.27
13,ACTAGCACGTGTAGGT,0
14,GGGGGCACGTGTCAAG,-0.08
15,AGTGGCACGTGGAGTG,-0.06
16,CTTTCCACGTGTGTGG,0.11
17,AAAGCCACGTGTGGTG,-0.06
18,ATGGTCACGTGGGTCG,0.03
19,AGACTCACGTGTGTGA,0.37
20,TATCGCACGTGTAATA,0.25
21,ATTTACACGTGAGGCG,0.27
22,GGTTGCACGTGGCGTG,0.13
23,ATTTACACGTGGAGTT,0.27
24,GCGGTCACGTGTGGAT,0.29
25,ATGGTCACGTGGTGAG,0.06
26,GTCTGCACGTGGGTTC,-0.03

row,Sequence,relative binding free energy [kcal/mol]
1,AGAGTCACGTGTAGAT,0.2
2,TGGAGCACGTGGGAGT,-0.13
3,TTGGGCACGTGCATAG,-0.36
4,GACTGCACGTGTTTAT,0.16
5,TGAATCACGTGAGGGC,0.26
6,GGTATCACGTGGTGCA,0.04
7,GGTTGCACGTGAATTT,0.27
8,GTGGTCACGTGTGTAC,0.2
9,AGCTGCACGTGGAGTA,0.11
10,GTGGGCACGTGATGTC,-0.02
11,TGTGCCACGTGACTTG,0.08
12,TGTTGCACGTGCGTTA,-0.06
13,TTTCGCACGTGGTAGT,-0.16
14,GGCTACACGTGGTATT,0.02
15,GGTGTCACGTGTCGGA,0.19
16,CTTTTCACGTGGCTGT,0.17
17,CGGGCCACGTGTCGGG,0.01
18,TGTGACACGTGTCTAT,-0.02
19,GGTAGCACGTGTGCGC,-0.02
20,TAGAGCACGTGGTATG,-0.2
21,GCTAGCACGTGTGTGT,-0.13
22,GTTTACACGTGATATG,0.24
23,TGTCACACGTGCGGGG,0.1
24,AGAGGCACGTGTTCGT,-0.11
25,GCTTGCACGTGAGTTT,0.29
26,AAGGTCACGTGATCGT,0.2

row,Sequence,relative binding free energy [kcal/mol]
1,CGTGTCACGTGCTGTG,0.15
2,GTCAACACGTGTTGGG,0.13
3,GCTTGCACGTGGTCAG,-0.02
4,GTTGTCACGTGTAGGA,0.17
5,AGATGCACGTGAGATG,0.07
6,CGTGGCACGTGGGTGG,-0.36
7,TTAAGCACGTGGAGAT,-0.02
8,ATATTCACGTGGATGC,0.28
9,GTGGGCACGTGCGCTT,-0.11
10,AATTACACGTGGATTA,0.19
11,ATGGTCACGTGCTGTG,0.09
12,CATAACACGTGTGAGT,0.2
13,ACTATCACGTGTCGGT,0.32
14,AGTGACACGTGTGTCT,0.05
15,GAAGTCACGTGTAGAG,0.35
16,GTCAGCACGTGGGAGT,-0.12
17,TGCTGCACGTGTGTGC,0.07
18,TAGGACACGTGGGGGA,-0.24
19,TTGTTCACGTGAAGCT,0.35
20,TTCGCCACGTGTAGGT,0.01
21,TATTGCACGTGCGTCG,0.04
22,GGCGTCACGTGGCATG,0.16
23,CTTGGCACGTGCTATG,-0.13
24,AGGATCACGTGTTTCT,0.13
25,GGTAACACGTGGGTTT,-0.05
26,TGTTACACGTGGAAAT,0.27

row,Sequence,relative binding free energy [kcal/mol]
1,TTGTCCACGTGTTAGA,-0.04
2,TGGTCCACGTGCGGTA,-0.01
3,TCTTGCACGTGGGGAC,-0.07
4,TCTTTCACGTGAGTTA,0.34
5,GGTTACACGTGGTCCG,0.1
6,GAATGCACGTGGGGTG,-0.16
7,TGCGGCACGTGGTGAT,-0.18
8,TGAGTCACGTGTACGG,0.17
9,GAGAACACGTGTGGGC,0.11
10,CGGGCCACGTGGAATG,0.08
11,TTTGACACGTGAGGGT,0.17
12,CGTTTCACGTGGGTCG,0.05
13,GGAAGCACGTGGGTAT,-0.25
14,GTTATCACGTGCGATT,0.15
15,TGCTGCACGTGGCATG,-0.07
16,GTGAGCACGTGGTTCT,-0.01
17,ATAGACACGTGGTATA,-0.08
18,CGAATCACGTGGGGAG,0.11
19,TTGGTCACGTGTGTAA,0.17
20,GTTAGCACGTGTTTTT,0.06
21,ATAGACACGTGTGGAT,-0.02
22,TGAGGCACGTGTTTCA,-0.14
23,TTAAACACGTGCGGGT,0.11
24,TGTGACACGTGTGAAA,0.13
25,TTCTTCACGTGGTCTG,0.03
26,GGGCTCACGTGAGTGA,0.24

row,Sequence,relative binding free energy [kcal/mol]
1,GTTATCACGTGGCTGG,0.21
2,TTGGGCACGTGTGTAA,-0.1
3,TTGTCCACGTGCGGGT,-0.1
4,CGCATCACGTGGGGGG,0
5,TGGAACACGTGTTTCT,0.02
6,GGTTACACGTGCTGTT,0.1
7,TTTTTCACGTGCCATG,0.29
8,TATATCACGTGTCGTT,0.13
9,GTGCTCACGTGGGATA,0.33
10,TCGGTCACGTGTTAAG,0.14
11,GATTACACGTGGTGAT,0.01
12,CAAGTCACGTGGGTTG,-0.14
13,ATATGCACGTGGCTTA,-0.22
14,CTGTGCACGTGGGCTT,-0.21
15,TTGGACACGTGCCGTT,0.01
16,AGATTCACGTGCGTAT,0.42
17,TGGGGCACGTGCTCGG,-0.17
18,ACGTTCACGTGTAGTA,0.35
19,GTGGTCACGTGTGAGA,0.26
20,GGTTTCACGTGATTTC,0.43
21,GTACGCACGTGTGTGG,-0.17
22,AGAATCACGTGTAGGG,0.2
23,ATGGGCACGTGTTGCG,-0.1
24,TGGTTCACGTGCTGTC,0.23
25,CTGAGCACGTGAGTTG,0.25
26,TTGGCCACGTGAGGGG,0.18

row,Sequence,relative binding free energy [kcal/mol]
1,CGTTGCACGTGAGCGT,0.11
2,ATCGTCACGTGATAGG,0.21
3,TACTACACGTGTTGTA,0.05
4,GGTAGCACGTGATAAT,0.3
5,GTTGACACGTGATCGT,0.27
6,GGGATCACGTGGCCAG,0.24
7,AGGAGCACGTGTGATT,-0.05
8,AAGTGCACGTGACTGG,0.23
9,TATGGCACGTGCGATA,-0.13
10,TAGAGCACGTGGGCAG,-0.18
11,AATGGCACGTGGACGG,-0.13
12,TGCGGCACGTGGATTG,-0.02
13,TACGGCACGTGTAAAG,0.16
14,GAGTTCACGTGCCGGT,0.24
15,TTTAGCACGTGGGGCA,-0.23
16,AAGTGCACGTGTGTAA,0.04
17,TACTTCACGTGGATGG,0.33
18,TAGAGCACGTGGGCCG,-0.23
19,GATATCACGTGTAGTT,0.26
20,TGACTCACGTGGTGGT,0.18
21,AGGTACACGTGGAGGT,0.06
22,TCAGGCACGTGGTTAG,-0.08
23,AGTCTCACGTGTAAGG,0.18
24,ATGGTCACGTGGGGTA,-0.07
25,TATAGCACGTGTGCGC,0.03
26,GCAAGCACGTGGTGGG,-0.09

row,Sequence,relative binding free energy [kcal/mol]
1,TATTTCACGTGTAGCT,0.27
2,TTGAACACGTGTGTAG,0.01
3,CTGAGCACGTGGGGTA,-0.31
4,ATGTCCACGTGGCGGT,-0.12
5,GGTTTCACGTGGGTCT,0.19
6,TGAGTCACGTGTACTT,0.06
7,TTGAACACGTGATGGG,0.09
8,AATAACACGTGGGGTA,-0.21
9,GCTGGCACGTGTAGGA,-0.04
10,TCGGGCACGTGTGTAA,-0.11
11,TCTTTCACGTGGTATA,0.24
12,AAAGGCACGTGTCGTG,-0.12
13,TCGTACACGTGCGGTT,0.01
14,CTTGCCACGTGGGGTA,-0.2
15,GGGGGCACGTGTCTTG,-0.09
16,TATTGCACGTGGTTCT,-0.08
17,CCTAGCACGTGGGGAG,-0.02
18,CATGGCACGTGGGAGC,-0.12
19,TTACTCACGTGTTTTA,0.12
20,TCTGGCACGTGTCTTG,-0.04
21,GGCGGCACGTGAAGGG,0.38
22,AGAATCACGTGTGTAT,0.17
23,TGGTGCACGTGCCGGC,-0.14
24,TCTTTCACGTGATTTA,0.24
25,ATATTCACGTGTGCGA,0.34
26,TCTGTCACGTGTCGAG,0.25

row,Sequence,relative binding free energy [kcal/mol]
1,TGAGCCACGTGGTAGG,-0.13
2,GTTTGCACGTGCCGTG,0.07
3,AGGATCACGTGGAGTG,0.27
4,GGGAGCACGTGTAATA,0.02
5,AGAGACACGTGGTGAG,-0.06
6,TCATGCACGTGAGGTA,0.22
7,GTTTACACGTGTGGCA,0.1
8,GGGAACACGTGAGATG,0.39
9,AATTTCACGTGAAAGT,0.37
10,TTCTTCACGTGCTGGT,0.25
11,ACTGTCACGTGTCGTG,0.02
12,TCGCTCACGTGTGTGT,0.13
13,TTGAACACGTGTGTTC,0.15
14,TTACGCACGTGGTGAT,-0.19
15,TGAGACACGTGGTGGC,0.06
16,GTGGCCACGTGCGCGT,-0.07
17,CATAGCACGTGGGGGG,-0.28
18,CCTTGCACGTGGAGGG,-0.01
19,TTATGCACGTGGCAGT,-0.1
20,AGAGTCACGTGCGAGT,0.17
21,CCCGGCACGTGAGGGG,0.01
22,TGTCACACGTGGTAAT,0.05
23,TGAAGCACGTGGCGTG,-0.16
24,GCTATCACGTGGTAGG,0.01
25,GAGGTCACGTGGGGTG,0
26,TGTCGCACGTGCGTGG,-0.18

row,Sequence,relative binding free energy [kcal/mol]
1,AGTTACACGTGTGACT,0.36
2,TTATTCACGTGTAACT,0.25
3,TTAAACACGTGGGGTC,-0.06
4,TTCAGCACGTGATGGA,0.09
5,GTGAGCACGTGAGTGC,0.23
6,TAAGGCACGTGGGAAG,-0.18
7,GAACTCACGTGGAGGT,0.35
8,AGTCACACGTGGAGTA,0.11
9,AAATTCACGTGGCAGG,0.38
10,TTGTTCACGTGAAGGG,0.4
11,GGTGGCACGTGGGAGC,-0.04
12,AGTGTCACGTGTGATT,0.13
13,TTTTGCACGTGGCATG,-0.19
14,AAAAGCACGTGGAGTG,-0.18
15,TTGTGCACGTGCATTT,0
16,GGCTGCACGTGGTTGT,0.04
17,GAAAGCACGTGTTTTA,0.14
18,ACTTGCACGTGGAGGT,-0.16
19,ATTTACACGTGTTAGG,0.07
20,GGAGTCACGTGGATAT,0.17
21,AGGGGCACGTGGATCA,-0.11
22,AGTTTCACGTGTGTCA,0.22
